Experimental data reported in PubChem BioAssay AID328 (DTP/NCI, 2004).
Toxic doses and inconclusive results are not listed. For part of its entries the source gives two or more results. This list holds those alone. An entry can have further records. The records of an entry are repeated measurements (runs, samples, wells, individuals or studies). A tag in brackets gives the origin of a value. Letters count within one entry. Counts like (3×) say how often a value occurs here.

Test system: BDF1 mice, P388 leukemia ip, median survival T/C
Assay: NCI In Vivo Anticancer Drug Screen. Data for tumor model P388 Leukemia (intraperitoneal) in B6D2F1 (BDF1) mice
Conditions: endpoint: median survival time, higher = longer survival
Summary of the method: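 Vehicle-dosed animals serve as the reference; survival of compound-dosed, tumour-implanted mice is divided by it.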

[1] = dose: 33.0 mg/kg/injection, schedule: Q01DX009 (ip), vehicle: saline
[2] = dose: 25.0 mg/kg/injection, schedule: Q01DX009 (ip), vehicle: saline

## COC(=O)C[C@](O)(CCCC(C)(C)O)C(=O)O[C@@H]1C(OC)=C[C@]23CCCN2CCc2cc4c(cc2[C@H]13)OCO4
dose: 2.0 mg/kg/injection, schedule: Q01DX009 (ip), vehicle: saline
  T/C: 95 % of control and 300 % of control

## COc1cc(Cc2nccc3cc(OC)c(OC)cc23)c(C(C)=O)c(OC)c1
dose: 40.0 mg/kg/injection, schedule: Q01DX009 (ip), vehicle: saline
  T/C: 110 % of control and 166 % of control
dose: 80.0 mg/kg/injection, schedule: Q01DX009 (ip), vehicle: saline
  T/C: 100 % of control and 190 % of control

## CC1(C)S[C@@H]2[C@H](NC(=O)CCC[C@@H](N)C(=O)O)C(=O)N2[C@H]1C(=O)O
dose: 375.0 mg/kg/injection, schedule: Q01DX009 (ip), vehicle: saline
  T/C: 106 % of control, 117 % of control, 156 % of control

## Nc1nc(N)c(-c2ccc(Cl)c(Cl)c2)c(COc2cccc(CNC(=O)c3cccc(S(=O)(=O)F)c3)c2)n1
dose: 300.0 mg/kg/injection, schedule: Q04DX003 (ip), vehicle: Klucel (hydroxypropylcellulose) (HPC)
  T/C: 119 % of control and 150 % of control

## NCCc1ccc(O)c(O)c1
dose: 600.0 mg/kg/injection, schedule: Q01DX009 (ip), vehicle: saline
  T/C: 90 % of control and 168 % of control

## CC(=O)C1COC(O)C1C (stereo not drawn)
dose: 2.5 mg/kg/injection, schedule: Q01DX009 (ip), vehicle: saline
  T/C: 153 % of control [sample A] and 107 % of control [sample B]

## c1nc(SC2=NCCN2)c2[nH]cnc2n1
[1]
  T/C: 119 % of control and 150 % of control

## COC(C(=O)C(O)C(C)O)C1Cc2cc3cc(OC4CC(OC(C)=O)C(OC5CC(O)C(OC)C(C)O5)C(C)O4)cc(O)c3c(O)c2C(=O)C1OC1CC(OC2CC(OC3CC(C)(O)C(OC(=O)C(C)C)C(C)O3)C(O)C(C)O2)C(O)C(C)O1 (stereo not drawn)
dose: 2.0 mg/kg/injection, schedule: Q01DX009 (ip), vehicle: other
  T/C: 195 % of control [sample A] and 87 % of control [sample B]

## CCCn1cnc2c(=S)nc(N)[nH]c21
dose: 66.0 mg/kg/injection, schedule: Q04DX003 (ip), vehicle: Klucel (hydroxypropylcellulose) (HPC)
  T/C: 105 % of control and 159 % of control
dose: 100.0 mg/kg/injection, schedule: Q04DX003 (ip), vehicle: Klucel (hydroxypropylcellulose) (HPC)
  T/C: 90 % of control and 168 % of control

## N/C(=N\Cl)C(Cl)(Cl)Cl
dose: 16.5 mg/kg/injection, schedule: Q01DX009 (ip), vehicle: saline
  T/C: 113 % of control and 150 % of control

## CN(C)/N=N/c1nc[nH]c1C(N)=O
dose: 100.0 mg/kg/injection, schedule: Q01DX010 (ip), vehicle: saline
  T/C: 100 % of control and 154 % of control

## CC1CN1P(=O)(Oc1ccccc1)N1CC1C (stereo not drawn)
dose: 100.0 mg/kg/injection, schedule: Q01DX009 (ip), vehicle: saline
  T/C: 112 % of control and 195 % of control

## O=C1C(NCC(O)CO)=C(N2CC2)C(=O)C(NCC(O)CO)=C1N1CC1 (stereo not drawn)
dose: 1.0 mg/kg/injection, schedule: Q01DX009 (ip), vehicle: saline
  T/C: 115 % of control and 181 % of control

## O=NN(CCBr)C(=O)Nc1ccccc1
dose: 10.0 mg/kg/injection, schedule: Q04DX003 (ip), vehicle: Klucel (hydroxypropylcellulose) (HPC)
  T/C: 119 % of control and 154 % of control

## COC1=C(N)C(=O)c2nc(-c3nc(C(=O)O)c(C)c(-c4ccc(OC)c(OC)c4O)c3N)ccc2C1=O
dose: 0.05 mg/kg/injection, schedule: Q01DX010 (ip), vehicle: saline
  T/C: 118 % of control [sample A] and 155 % of control [sample B]

## OCC1OC(OC2(CO)OC(CO)C(O)C2O)C(O)C(O)C1O (stereo not drawn)
[1]
  T/C: 122 % of control and 155 % of control

## O=C1CC(c2ccc(O)cc2)CC(=O)C1C(C1CC=CCC1)N(CCCl)CCCl (stereo not drawn)
dose: 400.0 mg/kg/injection, schedule: Q04DX003 (ip), vehicle: Klucel (hydroxypropylcellulose) (HPC)
  T/C: 150 % of control (2×), 158 % of control [sample A] and 112 % of control [sample B]

## Cc1ccc(Oc2ccc3cc[n+](C)cc3c2)cc1
dose: 6.25 mg/kg/injection, schedule: Q01DX009 (ip), vehicle: saline
  T/C: 89 % of control and 180 % of control

## OCCOCCN1CCN(CCCN2c3ccccc3Sc3ccc(C(F)(F)F)cc32)CC1
dose: 25.0 mg/kg/injection, schedule: Q04DX003 (ip), vehicle: saline
  T/C: 123 % of control and 150 % of control

## Cn1cnc([N+](=O)[O-])c1Sc1nc(N)nc2c1ncn2C1OC(CO)C(O)C1O (stereo not drawn)
dose: 37.0 mg/kg/injection, schedule: Q04DX003 (ip), vehicle: saline
  T/C: 90 % of control and 183 % of control

## CN(CCCl)Cc1ccccc1
[2]
  T/C: 100 % of control and 155 % of control
dose: 50.0 mg/kg/injection, schedule: Q04DX003 (ip), vehicle: saline
  T/C: 119 % of control and 190 % of control
dose: 66.0 mg/kg/injection, schedule: Q04DX003 (ip), vehicle: saline
  T/C: 120 % of control and 159 % of control

## CCSc1ccc2c(cc1=O)[C@@H](NC1OC(CO)C(O)C(O)C1O)CCc1cc(OC)c(OC)c(OC)c1-2 (stereo partly drawn)
dose: 400.0 mg/kg/injection, schedule: Q01DX009 (ip), vehicle: other
  T/C: 106 % of control and 155 % of control

## CC[n+]1c(-c2ccccc2)c2cc(N)ccc2c2ccc(N)cc21
dose: 10.0 mg/kg/injection, schedule: Q01DX010 (ip), vehicle: saline
  T/C: 123 % of control and 150 % of control

## C=CCCCC[P+](c1ccccc1)(c1ccccc1)c1ccccc1
dose: 3.0 mg/kg/injection, schedule: Q01DX010 (ip), vehicle: saline
  T/C: 120 % of control and 150 % of control

## COc1cc(/C=C(/C)[N+](=O)[O-])ccc1O
[2]
  T/C: 118 % of control and 155 % of control

## O=C1N(Cl)C(=O)C(c2ccc(Cl)cc2)(c2ccc(Cl)cc2)N1Cl
dose: 300.0 mg/kg/injection, schedule: Q04DX003 (ip), vehicle: saline with Tween-80
  T/C: 104 % of control, 160 % of control, 163 % of control

## NC(=O)c1ccc[n+](Cc2c(Cl)cccc2Cl)c1
dose: 9.3 mg/kg/injection, schedule: Q01DX009 (ip), vehicle: saline
  T/C: 122 % of control and 158 % of control
dose: 20.0 mg/kg/injection, schedule: Q04DX003 (ip), vehicle: saline
  T/C: 100 % of control and 150 % of control

## Nc1ccc2nc3ccc(N)cc3[n+](-c3ccccc3)c2c1
dose: 12.0 mg/kg/injection, schedule: Q01DX009 (ip), vehicle: saline
  T/C: 109 % of control and 183 % of control

## CC(Cl)CN(CC(C)Cl)c1ccc(S(=O)(=O)Nc2ncccn2)cc1 (stereo not drawn)
dose: 200.0 mg/kg/injection, schedule: Q01DX009 (ip), vehicle: gum acacia
  T/C: 88 % of control and 272 % of control

## Nc1ncnc2c1c(C(=O)O)cn2C1OC(CO)C(O)C1O (stereo not drawn)
dose: 150.0 mg/kg/injection, schedule: Q04DX003 (ip), vehicle: saline with Tween-80
  T/C: 95 % of control and 185 % of control

## Nc1ncnc2c1nnn2C1CC(CO)C(O)C1O (stereo not drawn)
dose: 150.0 mg/kg/injection, schedule: Q01DX009 (ip), vehicle: saline with Tween-80
  T/C: 118 % of control and 173 % of control

## [Cl][Pt+2][Cl].[NH-]C1CCC1.[NH-]C1CCC1
dose: 6.25 mg/kg/injection, schedule: Q01DX009 (ip), vehicle: Klucel (hydroxypropylcellulose) (HPC)
  T/C: 115 % of control and 173 % of control

## Cc1c2ccccc2cc2cccc[n+]12
dose: 20.0 mg/kg/injection, schedule: Q01DX010 (ip), vehicle: saline
  T/C: 100 % of control and 170 % of control
